Measured values from ChEMBL document CHEMBL4888484, “Replenishing the malaria drug discovery pipeline: Screening and hit evaluation of the MMV Hit Generation Library 1 (HGL1) against asexual blood stage Plasmodium falciparum ,using a nano luciferase reporter read-out” (2022).
In all, about 150,000 compounds went through this assay and about 540 (0.36%) showed an effect of 50% or more. The list shows a part of the results.

test system: Plasmodium falciparum; experiment: Primary screen in NF54 nanoGlo assay, in single point, at 2uM, 72h; a lower Z score goes with more inhibition; format: functional, Erythrocyte; details: timepoint 72 hour

Row | SMILES | % Inhibition | Z score
1 | Cn1cc2c(n1)CCC[C@H]2C(=O)N1CC(N2CCNC2=O)C1 | -5% | 0.8
2 | CC(=O)N1CCN(C(=O)c2cc(C)n(C)n2)CC[C@H]1c1nc(C)no1 | -4% | 0.59
3 | CC(C)n1cnc(NC(=O)CN2CCCC3(CC3)S2(=O)=O)n1 | 6% | -1.04
4 | COC1(c2nccn2C)CN(C(=O)OCC(F)(F)F)C1 | -8% | 0.96
5 | O=C(NCC(N1CCOCC1)C(F)(F)F)C1CC12CCOC2 (stereo not given) | 41% | -1.51
6 | CC(=O)c1ccc(OCC(=O)NCC(F)(F)F)cc1F | -8% | 1.05
7 | O=C(c1cccs1)N1CCN(c2nnc3ccc(C(F)(F)F)cn23)CC1 | -22% | 2.46
8 | CC(C)CC1CC(NC(=O)Nc2ccccc2Cc2ccccc2)CCO1 (stereo not given) | 2% | -0.32
9 | Cc1ccc2oc(-c3noc(C(=O)NCc4ccc(C)o4)n3)c(C)c2c1 | -14% | 1.85
10 | Cc1c(NC(=O)CN2CC(Oc3ccccc3F)C2)cnn1C | -11% | 2.18
11 | CCCC[C@@H](COC)NC(=O)C(=O)Nc1cnn(CC(=O)N(C)C)c1 | -11% | 1.55
12 | CN(CC(=O)Nc1cc(F)cc(F)c1)Cc1ncc(C(C)(C)C)o1 | 11% | -1.37
13 | COC1C(C)C(NC(=O)NCCS(=O)(=O)NC(C)C)C1(C)C (stereo not given) | -2% | 0.29
14 | CCCCC(=O)Nc1cccc(C#Cc2ccccn2)c1 | -11% | 1.51
15 | Cc1cc(=O)[nH]c(C)c1C(=O)N1CCC2(CCC(=O)N(C3CC3)C2)CC1 | -16% | 1.52
16 | COc1ccc(N(CCC(C)C)C(=O)[C@@H]2CNC(=O)c3ccccc32)cc1 | 1% | -0.13
17 | O=C(O)[C@H]1CCCN1Cc1cnn(-c2ccccc2)c1 | -12% | 1.92
18 | CC1(CON=C(N)CN2CCOCC2)CCC1 | -18% | 3.09
19 | CC(NC(=O)C1C2CCC(C2)N1C(=O)NC1CCCCC1)c1ccccc1 (stereo not given) | 14% | -1.42
20 | O=S(=O)(c1ccc2c(c1)CCCC2)N(CCN1CCCCC1)[C@H]1CCNC1 | 8% | -1.23
21 | CN(Cc1nnc(C2CCC2)o1)c1cccc(O)c1 | -2% | 0.25
22 | Cn1c(NC(=O)CCCCC(N)=O)nc2cccc(Cl)c21 | -1% | 0.14

Row | SMILES | % Inhibition | Z score
23 | CCC(=O)NCCc1csc(C2CCN(C(=O)Nc3ccc(C)cc3)CC2)n1 | -3% | 0.31
24 | C#CCNC(=O)CC(=O)NCCOc1cccc(Cl)c1Cl | -4% | 0.58
25 | COc1cccc(-c2nc3c(OCc4ccccc4)cccn3c2NC2CCCCC2)c1 | -9% | 1.55
26 | CCCC(=O)N1C[C@H](C(=O)O)[C@@H](c2ccccc2OC)C1 | 2% | -0.3
27 | O=C(NC1CCOC1c1ccc(F)c(F)c1)N1CCC(CO)CC1 (stereo not given) | -2% | 0.3
28 | O=C(c1ccco1)N1CCN(c2ccc(C(F)(F)F)nn2)CC1 | -5% | 0.54
29 | O=c1[nH]c(CNc2nc(C3CC3)nc3c2CCC3)nc2c1COCC2 | -10% | 1.9
30 | CCc1cnc(N)nc1N1CCN(c2nccc(OC)n2)CC1 | -15% | 2.49
31 | Cc1csc([C@H](C)NC(=O)c2c[nH]c(=O)c(Cl)c2)n1 | -13% | 1.33
32 | Cn1c(Cc2cn3ccccc3n2)nnc1N1CCOC(C)(C)C1 | -2% | 0.2
33 | COCc1nc(Cn2cnc(-c3ccccc3)c2-c2cc(C)cc(C)c2)no1 | -2% | 0.39
34 | C=CCN1CCC(N[C@H]2CCc3ccccc3C2)CC1 | -9% | 0.87
35 | Cn1cncc1-c1ccc(C(=O)N2CCN(c3cnccn3)CC2)cc1 | -7% | 1.13
36 | COc1ccc2cc1Oc1cccc(c1)CO[C@H]1CN(c3cc(C(=O)N4CCOCC4)ccn3)C[C@@H]1NC(=O)CN(C)C2 | 1% | -0.17
37 | CC(C)(C)C1CCC2(CC1)NCCN=C2NCc1cccc(F)c1 (stereo not given) | -2% | 0.23
38 | CN(C)S(=O)(=O)Nc1ccn(-c2ccc(C#N)cc2F)n1 | 3% | -0.54
39 | O=C(Cc1cccs1)N1CCN(c2ccccc2F)CC1 | -3% | 0.51
40 | O=C(NC(c1ccccc1)c1ccccc1)c1cc2c(s1)CCCC2 | 5% | -0.49
41 | COc1cccc(OC2CN(C[C@H]3COc4ccccc4O3)C2)c1 | 3% | -0.59
42 | C[C@H]1CCCN(C(=O)CCN2C(=O)c3ccccc3C2=O)C1 | -6% | 1.15
43 | Cc1nc(C)c(Br)c(N2CCN(c3ccnnc3)CC2)n1 | -15% | 3.02
44 | Cn1nnc2c1CCN(C(=O)C1CCN(S(=O)(=O)c3ccc4c(c3)CCC4)CC1)C2 | -9% | 0.97

Row | SMILES | % Inhibition | Z score
45 | O=C(c1ccccc1F)N(Cc1nccn1Cc1c(F)cccc1Cl)C1CC1 | 45% | -6.44
46 | CCN(CC)CCOc1ccc(C#N)cc1 | 12% | -2.2
47 | CC1(C)CCC(F)C1NCC1CCCNC1=O (stereo not given) | -14% | 2.16
48 | Cc1cc(=O)cc(C(=O)NC2(c3ccccc3C)CC2)[nH]1 | -9% | 1.31
49 | CNS(=O)(=O)CCCN[C@@H](C)c1cccc(C)c1C | -10% | 0.9
50 | Nc1nnnn1CC(=O)N[C@H]1CCC[C@H]1Cc1ccc(F)cc1 | -8% | 1.1
51 | O=C(NC1CCOCC1)c1ccc(-c2ccc(F)c(F)c2F)cn1 | 34% | -4.63
52 | C[C@H]1CCCN(c2nc(-c3cnn(C)c3)cs2)C1 | 15% | -2.04
53 | Cc1ccc(-c2n[nH]c(C3CC3)c2NC(=O)Cc2cccs2)c(C)c1 | 4% | -0.55
54 | CCCN1C(=O)N[C@@H](Cc2nc(C)nn2-c2ccc(C)cc2C)C1=O | -2% | 0.33
55 | Cc1nnc(NCc2cc3n(n2)CCCN(CC(C)C)C3)o1 | -19% | 1.77
56 | CS(=O)(=O)[C@H]1CCCN(C(=O)c2cc3ccccc3s2)CC1 | -9% | 1.64
57 | O=C(C[C@H]1COCCN1)Nc1nncn1Cc1ccccc1 | -8% | 1.45
58 | O=C(CCCN1C(=O)c2cccnc2Oc2ccccc21)NCc1ccc(F)cc1 | -1% | 0.15
59 | O=C1CN(CCc2ccccc2)C(=O)N1c1cc(-c2ccccc2)ns1 | -14% | 2.16
60 | c1ccc(-c2cn[nH]c2C2CCN(c3cnccn3)CC2)cc1 | 1% | -0.25
61 | O=C(O)c1ccc(CC(=O)N2CCC3(c4ccccc4)C(C2)C3(F)F)cc1 (stereo not given) | -5% | 0.85
62 | COc1cccc(N2CCN(C(=O)[C@H]3CC(=O)N(c4ccc5oc(C)nc5c4)C3)CC2)c1 | 5% | -0.94
63 | O=C(CCC1CCCC1)N[C@H]1CCN(c2ccc(=O)[nH]n2)C1 | -13% | 1.68
64 | CC(C)c1cc(NC(=O)NCc2ccc3c(c2)CC(C)(C)O3)n(C)n1 | -2% | 0.4
65 | O=S(=O)(NC1(C(F)(F)F)CCOCC1)c1ccc(Cl)cc1 | -3% | 0.33
66 | O=C(NC(CO)C(O)c1ccccc1)C(F)(F)F (stereo not given) | 0% | 0.04

Row | SMILES | % Inhibition | Z score
67 | Cc1ccc2c(C(=O)Nc3ccc4c(c3)OCCO4)cc(NC(=O)C(C)C)cc2n1 | -11% | 1.6
68 | Cc1cc(F)ccc1S(=O)(=O)N1CC[C@H](n2ccnn2)C1 | -17% | 2.19
69 | O=C1[C@@H]2CCCN2C(=O)N1CCOCC(F)(F)C(F)F | -9% | 1.18
70 | CCCC[C@H](CC)CNC(=O)c1scnc1C | 3% | -0.3
71 | CC(=O)c1cnc(N2C[C@@H]3[C@H](C2)[C@H]2CC[C@@H]3O2)nc1C | -12% | 1.97
72 | COc1ccc(C2(NCc3cn(C)cn3)CCOCC2)cc1F | -13% | 1.52
73 | COc1ccccc1C1(CNC(=O)C2CCCCC2)CCOCC1 | -2% | 0.33
74 | O=C(CCc1ccccc1)N1CCC(F)(C(=O)N2CCOCC2)CC1 | -1% | 0.16
75 | CC1C(C)S(=O)(=O)CCN1C(=O)c1ccc(Cl)cc1 (stereo not given) | 2% | -0.26
76 | CCCc1cnc(C)nc1N1CCC2(CC1)C[C@@H](C(=O)O)N(C(C)=O)C2 | 16% | -2.01
77 | CCN1CC2(CCN(Cc3cc(F)ccc3C(F)(F)F)CC2)OC1=O | -26% | 2.37
78 | COc1ccc(-c2nc(N3CCC(C)CC3)nc3nn(C)c(N)c23)cc1OC | -1% | 0.08
79 | O=C(COc1ccccc1)N1CCC2(CCC(=O)N(C[C@H]3CCCO3)C2)CC1 | -5% | 0.84
80 | N#Cc1ccc(NCC2(CO)CCC2)cc1 | -9% | 1.21
81 | Fc1ccccc1[C@@H](F)C1CCN(c2cc(N3CCOCC3)ncn2)CC1 | -10% | 1.04
82 | CCc1nc(C(C)C)nc(N2CCN(C(=O)c3ccc(F)cc3)CC2)c1Cc1cccc(C(F)(F)F)c1 | 1% | -0.1
83 | CCC(CC)CN(CC)C(=O)c1nccnc1C(=O)OC(C)(C)C | -1% | 0.17
84 | Cc1ccc(-c2ccc(=O)[nH]n2)cc1NC(=O)c1cn(CC[C@H]2CCCCN2)nn1 | -6% | 1
85 | O=S(=O)(CCCOc1ccccc1)N1CC(n2ccnn2)C1 | -13% | 1.44
